The values below come from paper PMC4336329 (PLoS ONE, 2015).

Molecules are shown by their SMILES. About 2,200 (0.71%) of roughly 310,000 compounds showed an effect of 50% or more. The effect is printed as a negative number. The list shows a part of the results.

This assay deals with human ether-à-go-go-related gene (hERG) potassium channel (human, UniProt Q12809). As to the kind of experiment: primary screen, population patch clamp on CHO cells stably expressing hERG.
human ether-à-go-go-related gene (hERG) potassium channel, sequence (Q12809 whole entry, looked up): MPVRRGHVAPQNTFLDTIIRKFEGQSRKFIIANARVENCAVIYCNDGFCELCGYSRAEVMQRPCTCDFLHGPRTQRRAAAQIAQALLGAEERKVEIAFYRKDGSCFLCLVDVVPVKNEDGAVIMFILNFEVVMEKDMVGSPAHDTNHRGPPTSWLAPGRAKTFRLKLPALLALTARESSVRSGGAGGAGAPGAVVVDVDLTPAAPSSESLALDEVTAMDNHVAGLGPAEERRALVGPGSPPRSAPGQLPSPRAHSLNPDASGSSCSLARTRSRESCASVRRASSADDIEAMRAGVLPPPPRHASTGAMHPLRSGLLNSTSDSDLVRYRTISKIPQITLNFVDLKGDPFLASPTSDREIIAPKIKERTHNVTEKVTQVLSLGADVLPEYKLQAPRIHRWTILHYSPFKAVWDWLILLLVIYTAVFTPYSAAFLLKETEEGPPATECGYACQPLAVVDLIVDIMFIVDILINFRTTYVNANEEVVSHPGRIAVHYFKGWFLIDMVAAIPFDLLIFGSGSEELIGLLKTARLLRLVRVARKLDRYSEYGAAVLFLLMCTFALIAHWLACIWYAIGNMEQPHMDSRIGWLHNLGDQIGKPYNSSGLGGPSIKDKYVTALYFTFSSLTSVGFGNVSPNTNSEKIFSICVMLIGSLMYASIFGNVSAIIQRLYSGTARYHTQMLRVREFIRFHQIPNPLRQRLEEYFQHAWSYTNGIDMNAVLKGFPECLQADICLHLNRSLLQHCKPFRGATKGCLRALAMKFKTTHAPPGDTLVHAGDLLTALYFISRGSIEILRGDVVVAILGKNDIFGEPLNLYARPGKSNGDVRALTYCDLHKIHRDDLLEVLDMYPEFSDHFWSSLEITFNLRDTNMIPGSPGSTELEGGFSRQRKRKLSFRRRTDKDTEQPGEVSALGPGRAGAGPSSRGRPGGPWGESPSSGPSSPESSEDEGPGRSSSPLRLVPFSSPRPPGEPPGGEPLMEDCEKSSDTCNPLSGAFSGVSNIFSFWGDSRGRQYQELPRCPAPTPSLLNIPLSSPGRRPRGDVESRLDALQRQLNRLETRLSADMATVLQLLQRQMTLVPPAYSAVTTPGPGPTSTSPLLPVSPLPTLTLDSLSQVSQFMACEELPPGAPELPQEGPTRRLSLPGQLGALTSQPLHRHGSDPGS
For the compound `CCOc1ccc(S(=O)(=O)N(C)CC(=O)NCc2ccco2)cc1`, the “hERG current change (%, negative = inhibition) at 1uM” value was found to be 9.5%.

As to `COc1cc(/C=C(\C#N)c2nc3ccccc3[nH]2)ccc1Oc1ccc([N+](=O)[O-])cn1`, the “hERG current change (%, negative = inhibition) at 1uM” value is 5.4%.

For `CCCCn1c(SCC(=O)N2CC(=O)Nc3ccccc32)nnc1-c1ccoc1C`, the “hERG current change (%, negative = inhibition) at 1uM” value is recorded as 1.88%.

Take `COc1ccc(C2=CSC3=C(C(=O)c4cccc(S(=O)(=O)N(C)C)c4)CCN23)cc1`: the “hERG current change (%, negative = inhibition) at 1uM” value worked out at 1.9%.

On to `Cc1ccn2cc(CCNS(=O)(=O)c3ccc4ccccc4c3)nc2c1`, for which the “hERG current change (%, negative = inhibition) at 1uM” value is -18.9%.

As to `COc1ccc([C@H]2CC(=O)C=C(c3cc4ccccc4s3)C2)cc1OC`, the “hERG current change (%, negative = inhibition) at 1uM” value is recorded as 15.2%.

Consider `Cc1cc(OCc2cc3c(cc2Cl)OCO3)c2c(C)cc(=O)oc2c1`, for which the “hERG current change (%, negative = inhibition) at 1uM” value is reported as 7.47%.

As for `Cl.OC(COc1ccccc1Br)CN1CCNCC1` (centres unmarked), the “hERG current change (%, negative = inhibition) at 1uM” value is 4.67%.

Take `COc1ccc(CNC(=O)c2ccc(NS(=O)(=O)c3c(C)noc3C)cc2)cc1`: the “hERG current change (%, negative = inhibition) at 1uM” value is 7.58%.

In the case of `CC1CCN(C(=O)c2[nH]cnc2C(=O)N[C@@H](C)C(=O)OC(C)(C)C)CC1`, the “hERG current change (%, negative = inhibition) at 1uM” value amounted to 1.65%.

As to `O=c1c2ccccc2nc(SCc2ccc(F)cc2Cl)n1CCCN1CCOCC1`, the “hERG current change (%, negative = inhibition) at 1uM” value came out at 6.94%.

As for `CCOC(=O)CSc1nc2c(sc(=S)n2-c2ccccc2OC)c(=O)n1Cc1ccco1`, the “hERG current change (%, negative = inhibition) at 1uM” value is listed as -3.5%.

Regarding `CC(C)=CCc1c(-c2ccc(O)cc2O)oc2cc3c(c(O)c2c1=O)C=CC(C)(C)O3`, the “hERG current change (%, negative = inhibition) at 1uM” value was found to be 18.8%.

For `Cc1ccccc1Nc1nnc(SCc2cc([N+](=O)[O-])cc3c2OCOC3)s1`, the “hERG current change (%, negative = inhibition) at 1uM” value is listed as -6.51%.

As for `Cc1cccc(Cn2c(CN3CCN(Cc4ccccc4)CC3)nc3c2c(=O)[nH]c(=O)n3C)c1`, the “hERG current change (%, negative = inhibition) at 1uM” value is -40.7%.

As to `O=C1NC(=O)C(=Cc2ccsc2)C(=O)N1`, the “hERG current change (%, negative = inhibition) at 1uM” value is reported as 8.19%.

For the compound `CCC(=O)Nc1cc2nn(-c3ccc(C)cc3)nc2cc1C`, the “hERG current change (%, negative = inhibition) at 1uM” value is on record as 12.5%.

Consider `S=c1[nH]nc(Nc2ccc(Cl)cc2)s1`, for which the “hERG current change (%, negative = inhibition) at 1uM” value was 13.8%.

Take `Cc1ccc(O)c(-c2cc(C(F)(F)F)[nH]n2)c1`: the “hERG current change (%, negative = inhibition) at 1uM” value is recorded as 3.07%.

Regarding `O=C(Cc1ccccc1)Nc1nnc(-c2ccccc2)o1`, the “hERG current change (%, negative = inhibition) at 1uM” value is given as 8.1%.

For the compound `O=c1c2ccccc2nnn1COc1ccc(F)cc1Cl`, the “hERG current change (%, negative = inhibition) at 1uM” value came to 14.2%.

In the case of `CCc1cccc(OCC2Cn3c(nc4c3c(=O)[nH]c(=O)n4C)O2)c1` (centres unmarked), the “hERG current change (%, negative = inhibition) at 1uM” value was determined as 17.1%.

For the compound `CCCCN1C(=O)c2ccc(C(=O)Nc3cccc(C)c3C)cc2C1=O`, the “hERG current change (%, negative = inhibition) at 1uM” value was found to be 10.6%.

Consider `CC(C)=CC(=O)NCc1c(Cl)cccc1-n1cccc1`, for which the “hERG current change (%, negative = inhibition) at 1uM” value turned out to be 21.7%.

Regarding `COc1ccccc1CC(=O)Nc1ccc(F)cc1F`, the “hERG current change (%, negative = inhibition) at 1uM” value was 6.65%.

For `CCC(=O)c1ccc(OCc2ccc(C(=O)c3ccccc3)cc2)cc1`, the “hERG current change (%, negative = inhibition) at 1uM” value stood at 7.18%.

As for `Cc1cccc(N2CC(C(=O)Nc3ccc(S(=O)(=O)Nc4nccs4)cc3)CC2=O)c1C` (centres unmarked), the “hERG current change (%, negative = inhibition) at 1uM” value was 15.5%.

As to `CC(=O)Nc1ccc(N(C(=O)c2ccccn2)C(C(=O)NC2CCCCC2)c2ccc(F)cc2)cc1` (centres unmarked), the “hERG current change (%, negative = inhibition) at 1uM” value stood at 12.2%.

For the compound `Cc1cccn2c(=O)c3cc(S(=O)(=O)c4ccc(Br)cc4)c(=N)n(C4CCCC4)c3nc12`, the “hERG current change (%, negative = inhibition) at 1uM” value was 14.5%.

Regarding `CC1(C)Cc2cccc(C(=O)NCc3ccco3)c2O1`, the “hERG current change (%, negative = inhibition) at 1uM” value is listed as 12.5%.

With `COCC(=O)Nc1ccc([N+](=O)[O-])cc1OC`, the “hERG current change (%, negative = inhibition) at 1uM” value stood at 1.61%.

`Cl.c1cncc(CNCCc2c[nH]c3ccccc23)c1`: the “hERG current change (%, negative = inhibition) at 1uM” value is 5.98%.

In the case of `CCOC(=O)/C=C/C(=O)OCC(=O)Nc1c(Cl)cccc1Cl`, the “hERG current change (%, negative = inhibition) at 1uM” value is 15.7%.

For the compound `CC(=O)NCC(=O)NC(C(=O)Nc1ccc2c(c1)OCCO2)c1ccccc1` (centres unmarked), the “hERG current change (%, negative = inhibition) at 1uM” value was determined as 5.47%.

In the case of `CSc1ccc(NC(=O)N2CCN(c3nc4ccccc4s3)CC2)cc1`, the “hERG current change (%, negative = inhibition) at 1uM” value worked out at 3.41%.

For the compound `C=CCOc1ccc(/C=N/NC(=O)CN(c2cc(Cl)ccc2OC)S(=O)(=O)c2ccc(C)c([N+](=O)[O-])c2)cc1`, the “hERG current change (%, negative = inhibition) at 1uM” value is -3.4%.

As to `O=C(O)c1cc(-c2ccccc2)c(N2CCOCC2)s1`, the “hERG current change (%, negative = inhibition) at 1uM” value came out at 9.67%.

For `O=c1c(/C=N/N2CCOCC2)c(O)n(-c2ccccc2)c(=S)n1-c1ccccc1`, the “hERG current change (%, negative = inhibition) at 1uM” value was found to be 12.8%.

Regarding `CCOC(=O)c1c(/N=C/c2ccc(OC)cc2O)sc2c1CCN(C)C2`, the “hERG current change (%, negative = inhibition) at 1uM” value amounted to 4.91%.

Regarding `Cc1ccc2c(c1)c(-c1csc(N)n1)c(C)n2C`, the “hERG current change (%, negative = inhibition) at 1uM” value turned out to be 4.12%.

Turning to `COc1ccc(-c2nnn(CC(=O)N(c3cccc(O)c3)C(C)C(=O)NC3CCCC3)n2)cc1OC` (centres unmarked), the “hERG current change (%, negative = inhibition) at 1uM” value came out at 7.56%.

For the compound `CCOC(=O)C1(CCCc2ccccc2)CCN(CCCn2cccn2)CC1`, the “hERG current change (%, negative = inhibition) at 1uM” value was -84.6%.

For `Clc1ccc(-c2nnc(SCc3nc4ccccc4[nH]3)o2)c(Cl)c1`, the “hERG current change (%, negative = inhibition) at 1uM” value came out at 6.79%.

Take `CC(=O)Nc1ccc(S(=O)(=O)NC2=C(N3CCN(C)CC3)C(=O)c3ccccc3C2=O)cc1`: the “hERG current change (%, negative = inhibition) at 1uM” value was 3.6%.

As to `Cc1ccc([N+](=O)[O-])cc1S(=O)(=O)N1CCN(C)CC1`, the “hERG current change (%, negative = inhibition) at 1uM” value is on record as 5.62%.

With `O=C(c1cccc(F)c1)N1C2C=CC(C2)C1(C(F)(F)F)C(F)(F)F` (centres unmarked), the “hERG current change (%, negative = inhibition) at 1uM” value is 9.63%.

For the compound `O=C(NC1CCCCC1)C1CC=CCC1C(=O)OCC(Cl)=C(Cl)Cl` (centres unmarked), the “hERG current change (%, negative = inhibition) at 1uM” value is -3.41%.

For `COc1nc(NCc2ccco2)nc(NC2CCCCC2)n1`, the “hERG current change (%, negative = inhibition) at 1uM” value was 2.61%.

`CCOC(=O)Nc1ccc(OC)cc1S(=O)(=O)N1CCCCC1`: the “hERG current change (%, negative = inhibition) at 1uM” value is listed as 3.28%.

Consider `CCCn1c(=S)[nH]c2cc(Cl)ccc21`, for which the “hERG current change (%, negative = inhibition) at 1uM” value is 13.7%.

Take `COC(=O)c1ccc(C(=O)OC)c(NC(=O)CCc2ccc(C)o2)c1`: the “hERG current change (%, negative = inhibition) at 1uM” value came to 12.6%.

As to `CCC(C)(C)NC(=O)C1CC(=O)N(CCc2ccc(F)cc2)C1` (centres unmarked), the “hERG current change (%, negative = inhibition) at 1uM” value is listed as 13.1%.

In the case of `COc1ccc2c(CC(=O)N3CCN(S(=O)(=O)c4cccs4)CC3)coc2c1`, the “hERG current change (%, negative = inhibition) at 1uM” value is 6.62%.

In the case of `CCN1CCCC1CNC(=O)c1c(O)c2c([nH]c1=O)CCCC2` (centres unmarked), the “hERG current change (%, negative = inhibition) at 1uM” value worked out at 8.57%.

On to `CC(C)c1cc(C(=O)N2CCCC(Nc3ccc(F)cc3)C2)n[nH]1` (centres unmarked), for which the “hERG current change (%, negative = inhibition) at 1uM” value was 8.47%.

With `CSc1ncccc1C(=O)OCn1nnc2ccccc2c1=O`, the “hERG current change (%, negative = inhibition) at 1uM” value was 10.2%.
